Target: T1, Fc fragment of human IgG1 below the hinge region containing no modification (SEQ ID NO: 62) (human, UniProt P01857 partial chain = IgG part)
T1 construct: Unmodified human IgG1 Fc fragment coexpressed with each full-length heavy chain and the light chain; it associates through its CH3 interface; also called WT-Fc fragment
Experiment: SEC peak area ratio after coexpression of full-length heavy chain, light chain and WT Fc fragment in Expi293F;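 also: peak area ratios come from chromatograms detected by UV absorbance at 215 nm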

B1: Full-length heavy chain with T394H/F405C (SEQ ID NO: 394) with light chain SEQ ID NO: 61 (antibody, human IgG1, kappa)
heavy: QVQLQESGPGLVRPSQTLSLTCTVSGYSITSDHAWSWVRQPPGRGLEWIGYISYSGITTYNPSLKSRVTMLRDTSKNQFSLRLSSVTAADTAVYYCARSLARTTAMDYWGQGSLVTVSSASTKGPSVFPLAPSSKSTSGGTAALGCLVKDYFPEPVTVSWNSGALTSGVHTFPAVLQSSGLYSLSSVVTVPSSSLGTQTYICNVNHKPSNTKVDKRV[no letters for human IgG1 Fc with T394H F405C (EU numbers)]
light: DIQMTQSPSSLSASVGDRVTITCRASQDISSYLNWYQQKPGKAPKLLIYYTSRLHSGVPSRFSGSGSGTDFTFTISSLQPEDIATYYCQQGNTLPYTFGQGTKVEIKRTVAAPSVFIFPPSDEQLKSGTASVVCLLNNFYPREAKVQWKVDNALQSGNSQESVTEQDSKDSTYSLSSTLTLSKADYEKHKVYACEVTHQGLSSPVTKSFNRGEC
notes: also called Sample No. 984
- Heteromultimer (%): 59.9%

B2: Full-length heavy chain with T394C/F405C (SEQ ID NO: 395) with light chain SEQ ID NO: 61 (antibody, human IgG1, kappa)
heavy: QVQLQESGPGLVRPSQTLSLTCTVSGYSITSDHAWSWVRQPPGRGLEWIGYISYSGITTYNPSLKSRVTMLRDTSKNQFSLRLSSVTAADTAVYYCARSLARTTAMDYWGQGSLVTVSSASTKGPSVFPLAPSSKSTSGGTAALGCLVKDYFPEPVTVSWNSGALTSGVHTFPAVLQSSGLYSLSSVVTVPSSSLGTQTYICNVNHKPSNTKVDKRV[no letters for human IgG1 Fc with T394C F405C (EU numbers)]
light: DIQMTQSPSSLSASVGDRVTITCRASQDISSYLNWYQQKPGKAPKLLIYYTSRLHSGVPSRFSGSGSGTDFTFTISSLQPEDIATYYCQQGNTLPYTFGQGTKVEIKRTVAAPSVFIFPPSDEQLKSGTASVVCLLNNFYPREAKVQWKVDNALQSGNSQESVTEQDSKDSTYSLSSTLTLSKADYEKHKVYACEVTHQGLSSPVTKSFNRGEC
notes: also called Sample No. 985
- Heteromultimer (%): 67.1%

B3: Full-length heavy chain with T394F/F405C (SEQ ID NO: 389) with light chain SEQ ID NO: 61 (antibody, human IgG1, kappa)
heavy: QVQLQESGPGLVRPSQTLSLTCTVSGYSITSDHAWSWVRQPPGRGLEWIGYISYSGITTYNPSLKSRVTMLRDTSKNQFSLRLSSVTAADTAVYYCARSLARTTAMDYWGQGSLVTVSSASTKGPSVFPLAPSSKSTSGGTAALGCLVKDYFPEPVTVSWNSGALTSGVHTFPAVLQSSGLYSLSSVVTVPSSSLGTQTYICNVNHKPSNTKVDKRV[no letters for human IgG1 Fc with T394F F405C (EU numbers)]
light: DIQMTQSPSSLSASVGDRVTITCRASQDISSYLNWYQQKPGKAPKLLIYYTSRLHSGVPSRFSGSGSGTDFTFTISSLQPEDIATYYCQQGNTLPYTFGQGTKVEIKRTVAAPSVFIFPPSDEQLKSGTASVVCLLNNFYPREAKVQWKVDNALQSGNSQESVTEQDSKDSTYSLSSTLTLSKADYEKHKVYACEVTHQGLSSPVTKSFNRGEC
notes: also called Sample No. 979
- Heteromultimer (%): 3.8%

B4: Full-length heavy chain with T394F/F405S (SEQ ID NO: 400) with light chain SEQ ID NO: 61 (antibody, human IgG1, kappa)
heavy: QVQLQESGPGLVRPSQTLSLTCTVSGYSITSDHAWSWVRQPPGRGLEWIGYISYSGITTYNPSLKSRVTMLRDTSKNQFSLRLSSVTAADTAVYYCARSLARTTAMDYWGQGSLVTVSSASTKGPSVFPLAPSSKSTSGGTAALGCLVKDYFPEPVTVSWNSGALTSGVHTFPAVLQSSGLYSLSSVVTVPSSSLGTQTYICNVNHKPSNTKVDKRV[no letters for human IgG1 Fc with T394F F405S (EU numbers)]
light: DIQMTQSPSSLSASVGDRVTITCRASQDISSYLNWYQQKPGKAPKLLIYYTSRLHSGVPSRFSGSGSGTDFTFTISSLQPEDIATYYCQQGNTLPYTFGQGTKVEIKRTVAAPSVFIFPPSDEQLKSGTASVVCLLNNFYPREAKVQWKVDNALQSGNSQESVTEQDSKDSTYSLSSTLTLSKADYEKHKVYACEVTHQGLSSPVTKSFNRGEC
notes: also called Sample No. 990
- Heteromultimer (%): 3.9%

B5: Full-length heavy chain with T394F/F405T (SEQ ID NO: 401) with light chain SEQ ID NO: 61 (antibody, human IgG1, kappa)
heavy: QVQLQESGPGLVRPSQTLSLTCTVSGYSITSDHAWSWVRQPPGRGLEWIGYISYSGITTYNPSLKSRVTMLRDTSKNQFSLRLSSVTAADTAVYYCARSLARTTAMDYWGQGSLVTVSSASTKGPSVFPLAPSSKSTSGGTAALGCLVKDYFPEPVTVSWNSGALTSGVHTFPAVLQSSGLYSLSSVVTVPSSSLGTQTYICNVNHKPSNTKVDKRV[no letters for human IgG1 Fc with T394F F405T (EU numbers)]
light: DIQMTQSPSSLSASVGDRVTITCRASQDISSYLNWYQQKPGKAPKLLIYYTSRLHSGVPSRFSGSGSGTDFTFTISSLQPEDIATYYCQQGNTLPYTFGQGTKVEIKRTVAAPSVFIFPPSDEQLKSGTASVVCLLNNFYPREAKVQWKVDNALQSGNSQESVTEQDSKDSTYSLSSTLTLSKADYEKHKVYACEVTHQGLSSPVTKSFNRGEC
notes: also called Sample No. 991
- Heteromultimer (%): 4%

B6: Full-length heavy chain with T394F/F405V (SEQ ID NO: 390) with light chain SEQ ID NO: 61 (antibody, human IgG1, kappa)
heavy: QVQLQESGPGLVRPSQTLSLTCTVSGYSITSDHAWSWVRQPPGRGLEWIGYISYSGITTYNPSLKSRVTMLRDTSKNQFSLRLSSVTAADTAVYYCARSLARTTAMDYWGQGSLVTVSSASTKGPSVFPLAPSSKSTSGGTAALGCLVKDYFPEPVTVSWNSGALTSGVHTFPAVLQSSGLYSLSSVVTVPSSSLGTQTYICNVNHKPSNTKVDKRV[no letters for human IgG1 Fc with T394F F405V (EU numbers)]
light: DIQMTQSPSSLSASVGDRVTITCRASQDISSYLNWYQQKPGKAPKLLIYYTSRLHSGVPSRFSGSGSGTDFTFTISSLQPEDIATYYCQQGNTLPYTFGQGTKVEIKRTVAAPSVFIFPPSDEQLKSGTASVVCLLNNFYPREAKVQWKVDNALQSGNSQESVTEQDSKDSTYSLSSTLTLSKADYEKHKVYACEVTHQGLSSPVTKSFNRGEC
notes: also called Sample No. 980
- Heteromultimer (%): 3.7%

B7: Full-length heavy chain with T394H/F405G (SEQ ID NO: 391) with light chain SEQ ID NO: 61 (antibody, human IgG1, kappa)
heavy: QVQLQESGPGLVRPSQTLSLTCTVSGYSITSDHAWSWVRQPPGRGLEWIGYISYSGITTYNPSLKSRVTMLRDTSKNQFSLRLSSVTAADTAVYYCARSLARTTAMDYWGQGSLVTVSSASTKGPSVFPLAPSSKSTSGGTAALGCLVKDYFPEPVTVSWNSGALTSGVHTFPAVLQSSGLYSLSSVVTVPSSSLGTQTYICNVNHKPSNTKVDKRV[no letters for human IgG1 Fc with T394H F405G (EU numbers)]
light: DIQMTQSPSSLSASVGDRVTITCRASQDISSYLNWYQQKPGKAPKLLIYYTSRLHSGVPSRFSGSGSGTDFTFTISSLQPEDIATYYCQQGNTLPYTFGQGTKVEIKRTVAAPSVFIFPPSDEQLKSGTASVVCLLNNFYPREAKVQWKVDNALQSGNSQESVTEQDSKDSTYSLSSTLTLSKADYEKHKVYACEVTHQGLSSPVTKSFNRGEC
notes: also called Sample No. 981
- Heteromultimer (%): 21.9%

B8: Full-length heavy chain with T394H/F405S (SEQ ID NO: 392) with light chain SEQ ID NO: 61 (antibody, human IgG1, kappa)
heavy: QVQLQESGPGLVRPSQTLSLTCTVSGYSITSDHAWSWVRQPPGRGLEWIGYISYSGITTYNPSLKSRVTMLRDTSKNQFSLRLSSVTAADTAVYYCARSLARTTAMDYWGQGSLVTVSSASTKGPSVFPLAPSSKSTSGGTAALGCLVKDYFPEPVTVSWNSGALTSGVHTFPAVLQSSGLYSLSSVVTVPSSSLGTQTYICNVNHKPSNTKVDKRV[no letters for human IgG1 Fc with T394H F405S (EU numbers)]
light: DIQMTQSPSSLSASVGDRVTITCRASQDISSYLNWYQQKPGKAPKLLIYYTSRLHSGVPSRFSGSGSGTDFTFTISSLQPEDIATYYCQQGNTLPYTFGQGTKVEIKRTVAAPSVFIFPPSDEQLKSGTASVVCLLNNFYPREAKVQWKVDNALQSGNSQESVTEQDSKDSTYSLSSTLTLSKADYEKHKVYACEVTHQGLSSPVTKSFNRGEC
notes: also called Sample No. 982
- Heteromultimer (%): 26.5%

B9: Full-length heavy chain with T394H/F405T (SEQ ID NO: 393) with light chain SEQ ID NO: 61 (antibody, human IgG1, kappa)
heavy: QVQLQESGPGLVRPSQTLSLTCTVSGYSITSDHAWSWVRQPPGRGLEWIGYISYSGITTYNPSLKSRVTMLRDTSKNQFSLRLSSVTAADTAVYYCARSLARTTAMDYWGQGSLVTVSSASTKGPSVFPLAPSSKSTSGGTAALGCLVKDYFPEPVTVSWNSGALTSGVHTFPAVLQSSGLYSLSSVVTVPSSSLGTQTYICNVNHKPSNTKVDKRV[no letters for human IgG1 Fc with T394H F405T (EU numbers)]
light: DIQMTQSPSSLSASVGDRVTITCRASQDISSYLNWYQQKPGKAPKLLIYYTSRLHSGVPSRFSGSGSGTDFTFTISSLQPEDIATYYCQQGNTLPYTFGQGTKVEIKRTVAAPSVFIFPPSDEQLKSGTASVVCLLNNFYPREAKVQWKVDNALQSGNSQESVTEQDSKDSTYSLSSTLTLSKADYEKHKVYACEVTHQGLSSPVTKSFNRGEC
notes: also called Sample No. 983
- Heteromultimer (%): 35.7%

B10: Full-length heavy chain with T394W/F405C (SEQ ID NO: 396) with light chain SEQ ID NO: 61 (antibody, human IgG1, kappa)
heavy: QVQLQESGPGLVRPSQTLSLTCTVSGYSITSDHAWSWVRQPPGRGLEWIGYISYSGITTYNPSLKSRVTMLRDTSKNQFSLRLSSVTAADTAVYYCARSLARTTAMDYWGQGSLVTVSSASTKGPSVFPLAPSSKSTSGGTAALGCLVKDYFPEPVTVSWNSGALTSGVHTFPAVLQSSGLYSLSSVVTVPSSSLGTQTYICNVNHKPSNTKVDKRV[no letters for human IgG1 Fc with T394W F405C (EU numbers)]
light: DIQMTQSPSSLSASVGDRVTITCRASQDISSYLNWYQQKPGKAPKLLIYYTSRLHSGVPSRFSGSGSGTDFTFTISSLQPEDIATYYCQQGNTLPYTFGQGTKVEIKRTVAAPSVFIFPPSDEQLKSGTASVVCLLNNFYPREAKVQWKVDNALQSGNSQESVTEQDSKDSTYSLSSTLTLSKADYEKHKVYACEVTHQGLSSPVTKSFNRGEC
notes: also called Sample No. 600; Sample No. 986
- Heteromultimer (%): 4.3%

B11: Full-length heavy chain with T394W/F405V (SEQ ID NO: 397) with light chain SEQ ID NO: 61 (antibody, human IgG1, kappa)
heavy: QVQLQESGPGLVRPSQTLSLTCTVSGYSITSDHAWSWVRQPPGRGLEWIGYISYSGITTYNPSLKSRVTMLRDTSKNQFSLRLSSVTAADTAVYYCARSLARTTAMDYWGQGSLVTVSSASTKGPSVFPLAPSSKSTSGGTAALGCLVKDYFPEPVTVSWNSGALTSGVHTFPAVLQSSGLYSLSSVVTVPSSSLGTQTYICNVNHKPSNTKVDKRV[no letters for human IgG1 Fc with T394W F405V (EU numbers)]
light: DIQMTQSPSSLSASVGDRVTITCRASQDISSYLNWYQQKPGKAPKLLIYYTSRLHSGVPSRFSGSGSGTDFTFTISSLQPEDIATYYCQQGNTLPYTFGQGTKVEIKRTVAAPSVFIFPPSDEQLKSGTASVVCLLNNFYPREAKVQWKVDNALQSGNSQESVTEQDSKDSTYSLSSTLTLSKADYEKHKVYACEVTHQGLSSPVTKSFNRGEC
notes: also called Sample No. 987
- Heteromultimer (%): 1.3%
